Results from PubChem BioAssay AID624417 (National Center for Advancing Translational Sciences (NCATS), 2012).
“And” between values parts separate entries of the source, which are not always exact repeats. Identical values can stand only once. The campaign covered roughly 410,000 compounds. About 6,400 (1.6%) were called active. Inconclusive means that the source gave no clear call. Such entries were picked first, then a sample of the others. Calls follow the shape of the dose curve; as a rule, active = well fitted inhibition curve with a large enough effect; inconclusive = small, poorly fitted or top-dose-only effect; inactive = no such curve, though single readings can be large or run the other way. Potencies of inconclusive entries are doubtful fits and often do not repeat.

Target: Glucagon-like peptide 1 receptor (Homo sapiens) (UniProt P43220)
Chain of UniProt P43220 (P43220 whole entry, looked up): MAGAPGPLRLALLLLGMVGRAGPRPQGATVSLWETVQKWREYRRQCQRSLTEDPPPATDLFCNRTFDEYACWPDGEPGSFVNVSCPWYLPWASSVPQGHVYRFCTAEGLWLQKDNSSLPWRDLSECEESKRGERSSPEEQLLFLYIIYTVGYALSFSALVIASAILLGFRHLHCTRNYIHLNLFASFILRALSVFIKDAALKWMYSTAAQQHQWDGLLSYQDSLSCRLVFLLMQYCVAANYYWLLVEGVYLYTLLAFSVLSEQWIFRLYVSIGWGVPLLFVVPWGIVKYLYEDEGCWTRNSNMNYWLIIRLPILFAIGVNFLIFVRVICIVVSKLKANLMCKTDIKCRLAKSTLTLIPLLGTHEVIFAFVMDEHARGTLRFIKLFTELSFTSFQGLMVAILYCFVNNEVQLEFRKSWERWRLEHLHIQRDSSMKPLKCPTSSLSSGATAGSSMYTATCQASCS
Test: qHTS of GLP-1 Receptor Inverse Agonists (Inhibition Mode); also: nearly all actives have a fitted effect of over 55% in size
Settings: HEK293 GLP-1R CRE-luciferase, luminescence, 24 h; Potency: GLP-1R form is constitutively active unless noted; activity change, negative = inhibition: at 38.3 µM (top of the series) unless noted
How it was run: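 Stable HEK293 clone (constitutively active GLP-1R + cAMP-response luciferase); 200 cells/uL plated, 12 h pre-culture, compound 24 hr, 37 deg C/5% CO2; detection reagent 12 min RT; luminescence.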
% is scaled to controls: 0 for no effect and ±100 for the full control effect; potency is read from the fitted curve at half-maximal effect; tags tell the direction and shape of the fitted curve.

Question: How did the Potency turn out when `O=C(Nc1ccc(Cl)c(Cl)c1)O/N=C/c1ccncc1` was run?
Answer: The Potency was inconclusive: 11.2 µM [inhibitor, single point].

Question: With `COc1cccc(CN2CCCC(C(=O)c3ccccc3SC)C2)c1O` (centres undefined) as the molecule, how does the Potency read?
Answer: Its Potency is inconclusive: 14.1 µM [inhibitor, partial curve, poor fit].

Question: How did the Potency turn out when `COC(=O)C1=C(c2ccc3ccccc3c2)C[C@@H]2CC[C@H]1N2C(=O)NC1Cc2ccccc2C1` was run?
Answer: Its Potency is inconclusive: 20 µM [inhibitor, single point].

Question: How did the Potency turn out when `C[C@]12CC[C@@H](O)CC1=CCC1C2CC[C@@]2(C)C1CC[C@@H]2N` (some centres undefined) was run?
Answer: Its Potency is active: 11.2 µM.

Question: Which Potency does the source give for `COc1cccc(CN2CCCCC2c2cccnc2)c1` (centres undefined) here?
Answer: The Potency was inconclusive: 3.55 µM [inhibitor, partial curve, poor fit].

Question: `CN(C)C(Cc1ccccc1)C(=O)c1ccccc1` (centres undefined) was tested. Which “activity change, negative = inhibition” value did it give?
Answer: Its value is inactive: 10.1%.

Question: `O=C1NCN(c2ccccc2)C12CCN(C(c1ccccc1OC(F)(F)F)c1nnnn1-c1ccc3c(c1)OCCO3)CC2` (centres undefined) was tested. Which Potency did it give?
Answer: The Potency was inconclusive: 28.2 µM [inhibitor, single point].

Question: For `COC(=O)C(O)(c1ccc(NC(=O)c2ccccc2)cc1)C(F)(F)F` (centres undefined), which “activity change, negative = inhibition” value is on record?
Answer: Its value is inactive: -7.97%.

Question: Which Potency does the source give for `O=c1c2ccccc2nc(/C=C/c2ccccc2)n1-c1ccccc1O` here?
Answer: Its Potency is inconclusive: 14.1 µM [inhibitor, partial curve, poor fit].

Question: For `CCN(CC)P(=O)(NC(=O)C(Cl)(Cl)Cl)N(CC)CC.[Cl-].[Cl-].[Cl-].[Nd+3]`, which Potency is on record?
Answer: The Potency was inconclusive: 7.94 µM [inhibitor, partial curve, poor fit].

Question: How did the Potency turn out when `Cc1cc(OCC(=O)N2CCCN(C)CC2)ccc1Cl` was run?
Answer: The Potency was inconclusive: 7.08 µM [inhibitor, partial curve, poor fit].

Question: With `CCOc1cc(-c2nc3c(C)cccn3c2NCC2CCCO2)ccc1O` (centres undefined) as the molecule, how does the “activity change, negative = inhibition” value read?
Answer: The value was inactive: 0.137%.

Question: `COC(=O)C1=C(c2ccc(F)cc2OCc2ccccc2)C[C@@H]2CC[C@H]1N2C(=O)NCc1ccc([N+](=O)[O-])cc1` was tested. Which Potency did it give?
Answer: Its Potency is inconclusive: 11.2 µM [inhibitor, partial curve, poor fit].

Question: Which “activity change, negative = inhibition” value does the source give for `COc1cc2oc(=O)c(CC(=O)N3C[C@H]4C[C@@H](C3)c3cccc(=O)n3C4)c(C)c2cc1Cl` here?
Answer: Its value is inactive: -4.69%.

Question: For `Cc1ccc(Cn2nnnc2CN2CCC(n3nnc4ccccc43)CC2)cc1`, which Potency is on record?
Answer: Its Potency is inconclusive: 28.2 µM [inhibitor, single point].

Question: Which Potency does the source give for `COc1cc2c(cc1OC)C13CCN4CC5=CCOC6CC(=O)N2C1C6C5C3C4` (centres undefined) (tested in a mixture with another compound) here?
Answer: The Potency was inconclusive: 28.2 µM [inhibitor, single point].

Question: With `CCN(CC)c1ccc(CN2CC=C(c3ccc(F)cc3)CC2)cc1` as the molecule, how does the Potency read?
Answer: Its Potency is inconclusive: 28.2 µM [inhibitor, single point].

Question: For `Clc1ccc(COC(Cn2ccnc2)c2ccc(Cl)cc2Cl)c(Cl)c1` (centres undefined), which Potency is on record?
Answer: The Potency was inconclusive: 22.4 µM [inhibitor, single point] and inconclusive: 12.6 µM [inhibitor, partial curve, poor fit].

Question: Which Potency does the source give for `CC(O)(c1ccncc1)c1nc(-c2cccc(C(F)(F)F)c2)cs1` (centres undefined) here?
Answer: Its Potency is inconclusive: 10 µM [inhibitor, partial curve].

Question: With `COC(=O)C1=C(c2cccc(OCc3ccccc3)c2)C[C@@H]2CC[C@H]1N2C(=O)NNCc1ccccc1` as the molecule, how does the Potency read?
Answer: Its Potency is inconclusive: 22.4 µM [inhibitor, single point].

Question: Which Potency does the source give for `CCCCCCCCN1C(=O)[C@H](CC(=O)NCCCC)C[C@@]2(C(=O)OCC)CCCC=C12` here?
Answer: The Potency was inconclusive: 7.08 µM [inhibitor, partial curve, poor fit].

Question: With `Cc1ccc(CSCCNS(=O)(=O)c2ccc([N+](=O)[O-])cc2)cc1` as the molecule, how does the Potency read?
Answer: The Potency was inconclusive: 10 µM [inhibitor, partial curve].

Question: Which “activity change, negative = inhibition” value does the source give for `COc1cc(C(=O)N2Cc3ccc(Br)cc3-n3nncc3C2)cc(OC)c1OC` here?
Answer: Its value is inactive: 29.4%.

Question: How did the Potency turn out when `O=[N+]([O-])c1ccc(C[n+]2c(-c3ccccc3)cc(-c3ccccc3)cc2-c2ccccc2)cc1` was run?
Answer: Its Potency is inconclusive: 11.2 µM [inhibitor, single point].

Question: With `CCOc1cc2c(cc1OCC)-n1cccc1C(c1ccc(OC)cc1)NC2` (centres undefined) as the molecule, how does the Potency read?
Answer: The Potency was inconclusive: 11.2 µM [inhibitor, single point].

Question: With `COC(=O)C1=C(c2ccc(F)cc2OCc2ccccc2)C[C@@H]2CC[C@H]1N2C(=O)NCc1ccc(N(C)C)cc1` as the molecule, how does the Potency read?
Answer: The Potency was active: 10 µM [setting not given].

Question: For `Clc1ccc(C(c2ccc(Cl)cc2)n2cc[n+](CC(OCc3ccc(Cl)cc3Cl)c3ccc(Cl)cc3Cl)c2)cc1` (centres undefined), which Potency is on record?
Answer: Its Potency is inconclusive: 28.2 µM [inhibitor, single point].

Question: How did the Potency turn out when `O=c1[nH]c2ccccc2n1C1CCN(C(c2ccccc2OC(F)(F)F)c2nnnn2-c2ccc3c(c2)OCCO3)CC1` (centres undefined) was run?
Answer: The Potency was inconclusive: 3.16 µM [inhibitor, full curve].

Question: For `CCOC(=O)c1c(C)[nH]c(C(=O)C(Cc2ccccc2)N(C)C)c1C` (centres undefined), which Potency is on record?
Answer: The Potency was inconclusive: 1 µM [inhibitor, full curve, poor fit].

Question: Which Potency does the source give for `O=[N+]([O-])c1ccc(N2CCCNCC2)c2ncccc12` here?
Answer: The Potency was inconclusive: 28.2 µM [inhibitor, single point].

Question: `COc1cc(CNCCc2c[nH]c3ccccc23)cc(OC)c1OC` was tested. Which “activity change, negative = inhibition” value did it give?
Answer: The value was inactive: -21.8%.

Question: `Cc1cccc(OCCn2c(=O)oc3ccc(C)cc32)c1` was tested. Which Potency did it give?
Answer: Its Potency is inconclusive: 28.2 µM [inhibitor, single point].

Question: `C=C1[C@@H](OC(C)=O)[C@]23C[C@@H]1[C@@H](OC(C)=O)CC2[C@]12C4C[C@H]3[C@H]1N(CC)C[C@]4(C)CC[C@@H]2O` (some centres undefined) was tested. Which Potency did it give?
Answer: The Potency was inconclusive: 10 µM [inhibitor, partial curve, poor fit].

Question: `CN(c1ccc(OCC(=O)N2CCN(C/C=C/c3ccccc3)CC2)cc1)S(=O)(=O)c1cccs1` was tested. Which Potency did it give?
Answer: Its Potency is inconclusive: 11.2 µM [inhibitor, partial curve, poor fit].

Question: How did the Potency turn out when `CCN1C(=O)NC(=O)/C(=C/c2cc(C)n(-c3sc(C)c(C)c3C#N)c2C)C1=O` was run?
Answer: Its Potency is inconclusive: 7.08 µM [inhibitor, partial curve, poor fit].

Question: With `ClC1=CCC2CN(CCN3CCCCC3)CC2C1` (centres undefined) as the molecule, how does the “activity change, negative = inhibition” value read?
Answer: Its value is inactive: -29%.

Question: For `COc1ccc(CCN)cc1O`, which “activity change, negative = inhibition” value is on record?
Answer: The value was inactive: -6%.

Question: How did the Potency turn out when `CCOC(=O)C(C)(CC)NC(=O)CSP(=S)(OCC)OCC` (centres undefined) was run?
Answer: Its Potency is inconclusive: 3.55 µM [inhibitor, partial curve, poor fit].

Question: `CCN(c1ccc(C(O)(C(=O)OC)C(F)(F)F)cc1)S(=O)(=O)c1ccc(C)cc1` (centres undefined) was tested. Which Potency did it give?
Answer: Its Potency is inconclusive: 28.2 µM [inhibitor, single point].

Question: How did the Potency turn out when `Fc1ccc(C(OCCN2CCCC2)c2ccc(F)cc2)cc1` was run?
Answer: Its Potency is inconclusive: 10 µM [inhibitor, partial curve, poor fit].

Question: Which Potency does the source give for `N#Cc1ccc(NC(=O)CN2C(=O)NC3(CCCCCCC3)C2=O)cc1Cl` here?
Answer: The Potency was inconclusive: 6.31 µM [inhibitor, partial curve, poor fit].

Question: For `CCOC(=O)c1cccc(C2=C(CNC(=O)c3nccs3)[C@H]3CC[C@@H](C2)N3Cc2ccccc2)c1`, which Potency is on record?
Answer: The Potency was inconclusive: 22.4 µM [inhibitor, single point].

Question: For `Nc1ccc(Oc2cccc(Oc3ccc(N)cc3)c2)cc1`, which Potency is on record?
Answer: Its Potency is inconclusive: 20 µM [inhibitor, single point].

Question: `COc1ccc(C(=O)OC2CCN(C)CC2)cc1` was tested. Which Potency did it give?
Answer: Its Potency is inconclusive: 2.82 µM [inhibitor, full curve].

Question: For `O=C1NC(=O)C(=Cc2ccc(OCCOc3ccc([N+](=O)[O-])cc3)cc2)C(=O)N1`, which Potency is on record?
Answer: Its Potency is inconclusive: 12.6 µM [inhibitor, partial curve, poor fit].

Question: With `CCCCc1ccc(NC(=O)c2ccc3c(c2)CCN3S(=O)(=O)CC)cc1` as the molecule, how does the Potency read?
Answer: Its Potency is inconclusive: 3.55 µM [inhibitor, full curve].

Question: For `Cc1cc(N(CCCl)CCCl)ccc1/C=N/N=C(\N)c1cnccn1`, which Potency is on record?
Answer: Its Potency is inconclusive: 6.31 µM [inhibitor, partial curve, poor fit].

Question: How did the “activity change, negative = inhibition” value turn out when `O=C1C(=O)c2cccc3cccc1c23` was run?
Answer: Its value is inactive: -2.05%.

Question: With `CC1CCN(c2nc(NCc3ccco3)nc(N)c2[N+](=O)[O-])CC1` as the molecule, how does the Potency read?
Answer: The Potency was inconclusive: 28.2 µM [inhibitor, single point].

Question: Which Potency does the source give for `CCC1=Nc2cc(C(=O)N3CCC4(CC3)OCCO4)ccc2Sc2ccc(C)cc21` here?
Answer: Its Potency is inconclusive: 14.1 µM [inhibitor, partial curve, poor fit].

Question: How did the Potency turn out when `COc1ccc(C(=O)C2CCCN(Cc3ccccn3)C2)c(OC)c1` (centres undefined) was run?
Answer: The Potency was inconclusive: 12.6 µM [inhibitor, partial curve, poor fit].

Question: For `CC/C(=N\N1CCCCCC1)c1c(O)n(-c2ccc(C)cc2)c(=O)[nH]c1=O`, which Potency is on record?
Answer: The Potency was inconclusive: 12.6 µM [inhibitor, partial curve, poor fit].

Question: `O=C(CN1CC=C(c2ccccc2)CC1)Nc1cc(Cl)ccc1Cl` was tested. Which Potency did it give?
Answer: The Potency was inconclusive: 10 µM [inhibitor, single point].

Question: With `COC(=O)C1CN(C#N)N(c2ccc(Cl)cc2)C12c1ccccc1-c1ccccc12` (centres undefined) as the molecule, how does the Potency read?
Answer: Its Potency is inconclusive: 2.24 µM [inhibitor, full curve, poor fit].

Question: For `Cc1ccc2c(Cl)cc(Cl)c(O)c2n1`, which Potency is on record?
Answer: Its Potency is inconclusive: 2.51 µM [inhibitor, full curve, poor fit].

Question: `c1ccc2c(CNC3CCCCCC3)c[nH]c2c1` was tested. Which Potency did it give?
Answer: The Potency was inconclusive: 28.2 µM [inhibitor, single point].

Question: For `Cc1cccc(CNCCc2c[nH]c3ccccc23)c1`, which Potency is on record?
Answer: The Potency was inconclusive: 10 µM [inhibitor, partial curve, poor fit].

Question: With `C=CCn1c(O)c(C=Nc2ccc(Cc3ccncc3)cc2)c(=O)[nH]c1=S` as the molecule, how does the Potency read?
Answer: Its Potency is inconclusive: 0.501 µM [inhibitor, full curve, poor fit].

Question: With `COc1ccc(C[C@H](C)NC[C@@H](O)c2ccc(O)c(NC=O)c2)cc1` as the molecule, how does the “activity change, negative = inhibition” value read?
Answer: Its value is inactive: 41% [at 38.3 µM, GLP-1R form is constitutively active].
